Results as given in ChEMBL document CHEMBL4888484, “Replenishing the malaria drug discovery pipeline: Screening and hit evaluation of the MMV Hit Generation Library 1 (HGL1) against asexual blood stage Plasmodium falciparum ,using a nano luciferase reporter read-out” (2022).
Among all 150,000 compounds or so, about 540 (0.36%) showed an effect of 50% or more. This is one part of the list.

system: Plasmodium falciparum; test: Primary screen in NF54 nanoGlo assay, in single point, at 2uM, 72h; a lower Z score goes with more inhibition; type: functional, Erythrocyte; details: timepoint 72 hour

**Q.** Which results are given for `N#Cc1ccc(CNC(=O)NCC(=O)N2CCCC2)c(F)c1`?
**A.** % Inhibition: -13%; Z score: 1.68

**Q.** With `Cc1noc(C)c1C[C@H](C)NC(=O)Nc1cnn(C(C)C)c1` as the compound, how does the “% Inhibition” value read?
**A.** The value was -3%.

**Q.** What about the Z score of the same compound?
**A.** The Z score was 0.33.

**Q.** `Cn1nc2c(c1CNCc1ccco1)CCC2` was tested. Which “% Inhibition” value did it give?
**A.** Its value is -12%.

**Q.** What about the Z score of the same compound?
**A.** The Z score was 1.41.

**Q.** Which results are given for `O[C@H]1CC[C@@H](c2nc(C3CC3)nn2-c2ccc(Cl)cc2)CC1`?
**A.** % Inhibition: -10%; Z score: 1.15

**Q.** `Cc1ccnc(NC(=O)[C@H](Cc2ccccc2)NS(=O)(=O)c2ccc3c(c2)c(=O)n(C)c(=O)n3C)c1` was tested. Which “% Inhibition” value did it give?
**A.** Its value is 1%.

**Q.** What about the Z score of the same compound?
**A.** Its Z score is -0.13.

**Q.** Which results are given for `Cc1nc(-c2cccnc2)nc(NCc2nnc3n2CCCCC3)c1C`?
**A.** % Inhibition: -8%; Z score: 1.03

**Q.** Which “% Inhibition” value does the source give for `CCC(CC)C(=O)Nc1ccc(Oc2c(C)c(C(=O)O)nn2CC)c(S(=O)(=O)N[C@@H](C)CC)c1` here?
**A.** The value was -17%.

**Q.** And the Z score?
**A.** The Z score was 1.68.

**Q.** What does the source list for `O=C(NCC(=O)N1CCC[C@H](c2[nH]ncc2-c2ccccc2)C1)c1ccccc1`?
**A.** % Inhibition: -14%; Z score: 1.68

**Q.** Which results are given for `COc1ccccc1N1CCN(C(=O)c2sc(N3CCCC3=O)nc2C(C)C)CC1`?
**A.** % Inhibition: -12%; Z score: 1.09

**Q.** What does the source list for `O=C(O)c1ccc(C(=O)N(C[C@H]2CCCO2)C2CCCC2)cn1`?
**A.** % Inhibition: -7%; Z score: 1.05

**Q.** With `COc1ccc(-c2nc3ccc(C(=O)NC[C@H]4CCCO4)cc3nc2-c2ccc(OC)c(OC)c2)cc1OC` as the compound, how does the “% Inhibition” value read?
**A.** Its value is 13%.

**Q.** What about the Z score of the same compound?
**A.** Its Z score is -1.53.

**Q.** Which “% Inhibition” value does the source give for `Cc1cccc(CNC(=O)c2nc(-c3oc4c(C)cccc4c3C)no2)c1` here?
**A.** Its value is -9%.

**Q.** And the Z score?
**A.** The Z score was 1.17.

**Q.** For `Cc1ccc(Br)cc1CNC(=O)NCCCO`, which “% Inhibition” value is on record?
**A.** The value was -7%.

**Q.** And the Z score?
**A.** The Z score was 1.35.

**Q.** How did the “% Inhibition” value turn out when `CCc1ccc(C(=O)NC(C)(C)CN(C)C)[nH]1` was run?
**A.** The value was -2%.

**Q.** And the Z score?
**A.** The Z score was 0.45.

**Q.** What does the source list for `O=C(c1ccccc1-n1ccnn1)N1Cc2cn[nH]c2C1`?
**A.** % Inhibition: -8%; Z score: 1.59

**Q.** What does the source list for `Cc1cccc(N2CCN(C(=O)Cn3ncn4nc(-c5ccccc5)cc4c3=O)C[C@@H]2C)c1`?
**A.** % Inhibition: -28%; Z score: 2.49

**Q.** `O=C(Nc1cccc(N2CCCC2=O)c1)c1cccc2ccccc12` was tested. Which “% Inhibition” value did it give?
**A.** Its value is -9%.

**Q.** And the Z score?
**A.** Its Z score is 1.85.

**Q.** `O=C(CN1CCCCCC1)N1CCCN(C(=O)C(F)(F)F)CC1` was tested. Which “% Inhibition” value did it give?
**A.** Its value is -8%.

**Q.** What about the Z score of the same compound?
**A.** The Z score was 0.86.

**Q.** Which results are given for `O=C(CCc1ccsc1)N1CCC(c2nc3cc(Cl)ccc3o2)CC1`?
**A.** % Inhibition: -8%; Z score: 1.45

**Q.** How did the “% Inhibition” value turn out when `NC(=O)c1nnn(-c2cccnc2)c1N` was run?
**A.** Its value is -12%.

**Q.** And the Z score?
**A.** Its Z score is 1.63.

**Q.** How did the “% Inhibition” value turn out when `Cc1nc(C(=O)NC[C@H]2CN(c3nncs3)CCO2)c(C)s1` was run?
**A.** Its value is 37%.

**Q.** And the Z score?
**A.** The Z score was -5.36.

**Q.** What does the source list for `Cc1ccc(S(=O)(=O)Nc2cnc(N3CCNCC3)c(C(=O)NC(C)C)c2)c(C)c1`?
**A.** % Inhibition: 1%; Z score: -0.1

**Q.** With `CC(=O)N1CC[C@H]2CN(S(=O)(=O)c3ccccc3)C[C@@]2(CO)C1` as the compound, how does the “% Inhibition” value read?
**A.** Its value is -12%.

**Q.** And the Z score?
**A.** The Z score was 1.68.

**Q.** For `Cc1nnc2c(N3CCN(C(=O)c4ccsc4)CC3)nccn12`, which “% Inhibition” value is on record?
**A.** Its value is -18%.

**Q.** What about the Z score of the same compound?
**A.** The Z score was 3.15.

**Q.** Which “% Inhibition” value does the source give for `Cc1ccc(N(C)Cc2nc3ccccc3c(=O)[nH]2)c(C)c1` here?
**A.** The value was -6%.

**Q.** And the Z score?
**A.** Its Z score is 0.78.

**Q.** What does the source list for `O=C(c1ccncn1)N1C2CCC1Cn1c(nn(CC3CC3)c1=O)C2` (configuration not stated)?
**A.** % Inhibition: -6%; Z score: 0.85

**Q.** Which “% Inhibition” value does the source give for `Cc1ccccc1N1CCC(N[C@@H](C)CCCC(C)(C)O)CC1` here?
**A.** The value was -25%.

**Q.** And the Z score?
**A.** Its Z score is 2.26.

**Q.** What does the source list for `COc1ccc(NC(=O)c2ccc(-c3noc(C4CCCC4)n3)cc2)cc1`?
**A.** % Inhibition: -13%; Z score: 1.3

**Q.** How did the “% Inhibition” value turn out when `COc1ccccc1C1(CNC(=O)c2cc3c(s2)CCC3)CCOCC1` was run?
**A.** The value was -17%.

**Q.** What about the Z score of the same compound?
**A.** The Z score was 1.78.

**Q.** What does the source list for `COc1ccc(Oc2nc(N3CCC(C)CC3)nc3c2CN(C(=O)c2ccccc2OC)CC3)cc1`?
**A.** % Inhibition: 18%; Z score: -2.2

**Q.** With `CC(=O)c1cccc(C(=O)N2C[C@@H]3CC[C@H]2CN(S(=O)(=O)N(C)C)C3)c1` as the compound, how does the “% Inhibition” value read?
**A.** Its value is -9%.

**Q.** And the Z score?
**A.** The Z score was 1.8.

**Q.** Which “% Inhibition” value does the source give for `Cc1cc(C)cc([C@@H](O)CNC(=O)c2cncnc2-c2ccccc2)c1` here?
**A.** The value was -16%.

**Q.** And the Z score?
**A.** Its Z score is 1.44.

**Q.** Which results are given for `Cc1ccc(S(=O)(=O)NC(C(=O)OC(C)C(=O)N2CCOCC2)C(C)C)cc1C` (configuration not stated)?
**A.** % Inhibition: 2%; Z score: -0.32

**Q.** For `COC1(CNC(=O)Nc2ccc(C)cn2)CCC1`, which “% Inhibition” value is on record?
**A.** Its value is -7%.

**Q.** What about the Z score of the same compound?
**A.** The Z score was 1.3.

**Q.** With `Cc1cc(CN(C)C(=O)c2ccc(C#N)c(C)n2)no1` as the compound, how does the “% Inhibition” value read?
**A.** Its value is -7%.

**Q.** What about the Z score of the same compound?
**A.** The Z score was 0.83.

**Q.** Which “% Inhibition” value does the source give for `O=C(C1CCN(c2ccc(F)c(F)c2)C1=O)N1CCCC(c2nnn[nH]2)C1` (configuration not stated) here?
**A.** Its value is 4%.

**Q.** And the Z score?
**A.** Its Z score is -0.74.

**Q.** Which results are given for `CN(C)c1ccc([C@H](CNC(=O)c2cccc(Cl)c2)N2CCOCC2)cc1`?
**A.** % Inhibition: 3%; Z score: -0.48

**Q.** How did the “% Inhibition” value turn out when `Fc1ccccc1-c1noc(-c2nc(-c3ccncc3)no2)n1` was run?
**A.** The value was -24%.

**Q.** What about the Z score of the same compound?
**A.** Its Z score is 2.17.

**Q.** What does the source list for `CC(C)Oc1ccc(C(=O)N2CCC(c3nnc(C(F)(F)F)o3)CC2)cc1`?
**A.** % Inhibition: -6%; Z score: 0.95

**Q.** With `COc1cc2c(cc1OC)CN(C(=O)CN1CCC[C@H](O)C1)CC2` as the compound, how does the “% Inhibition” value read?
**A.** Its value is -4%.

**Q.** What about the Z score of the same compound?
**A.** Its Z score is 0.6.

**Q.** Which results are given for `CCn1nccc1C1NC(=O)CCC1NC(=O)C(C)OCC(C)C` (configuration not stated)?
**A.** % Inhibition: 0%; Z score: 0.02
